Measured values reported in the antibiotic and cytotoxicity screens of Wong et al. (2023).
The list shows a part of the results.

System: S. aureus RN4220
Test: growth inhibition call (relative growth <= 0.2)
Details: 50 µM

SMILES | growth inhibition call
CN(CC[C@@H](N)CC(=O)N[C@H]1C=C[C@H](n2ccc(N)nc2=O)O[C@@H]1C(=O)O)C(=N)N | inactive
Cn1cc(N2C[C@@H]3CNC[C@@H]3C2=O)cn1 | inactive
CC(O)(CS(=O)(=O)c1ccc(F)cc1)C(=O)Nc1ccc(C#N)c(C(F)(F)F)c1 (centres undefined) | inactive
COC(=O)C1=CCCN(C)C1 | inactive
NC1Cc2ccccc2C1 | inactive
C[C@]12CC[C@](C)(O1)[C@H](C(=O)O)[C@@H]2C(=O)O | inactive
C1CC2(CCN1)OCCO2 | inactive
CN1CCC2(C)c3cc(O)ccc3N(C)C12.O=C(O)C=CC(=O)O (centres undefined) | inactive
[N-]=[N+]=NCC(=O)Nc1ccon1 | inactive
C[C@@H]1CN([C@H](C)CO)C(=O)c2c(c3ccccc3n2C)-c2ccccc2CO[C@H]1CN(C)C(=O)Oc1ccccc1 | inactive
CCCCCCCCCc1ccc(O)cc1 | inactive
N=C(N)NOCCC(N)C(=O)O (centres undefined) | inactive
OCC1CCCN2CCCCC12 (centres undefined) | inactive
COC(=O)[C@@]1(Cc2ccccc2CN=[N+]=[N-])N=C(c2ccc(OCCCO)cc2)O[C@H]1c1ccccc1N=[N+]=[N-] | inactive
Cl.NCCc1c[nH]c2ccc(O)cc12 | inactive
C=CCOC(Cn1ccnc1)c1ccc(Cl)cc1Cl.O=S(=O)(O)O (centres undefined) | active
C[C@@H]1CN([C@H](C)CO)C(=O)CCCn2cc(nn2)CO[C@@H]1CN(C)C(=O)Oc1cccc2ccccc12 | inactive
O=c1cccc2n1CC1CNCC2C1 (centres undefined) | inactive
CN(C)C(=O)CCC(=O)N1C[C@H]2C[C@@H]1CN2 | inactive
C1C[C@@H]2C[C@@H]2N1 | inactive

SMILES | growth inhibition call
O=C(O)CC[C@@H](CP(=O)(O)O)C(=O)O | inactive
CS(=N)(=O)CC[C@H](N)C(=O)O (some centres undefined) | inactive
C[C@@H]1O[C@@H](OC(=O)Cc2ccccc2)[C@H](O)[C@H](O)[C@H]1O | inactive
O=C1C2CCN(CC2)C1(CO)CO | inactive
O=C(O)Cc1cccnc1C(=O)O | inactive
COc1ccc(N=[N+]=[N-])cc1 | inactive
COP(=S)(OC)Oc1cc(Cl)c(Cl)cc1Cl | active
O=C1O[C@H]2CN[C@@H]1C2 | inactive
CC12CCC3C(CC=C4CC(O)CCC43C)C1CCC2=O (centres undefined) | inactive
N#[N+]CC(=O)CC[C@H](N)C(=O)O | inactive
COc1ccc2c3c([nH]c2c1)C(C)=NCC3 | inactive
C1COC2(CCOCC2)CN1 | inactive
N#CN1CCCC1 | inactive
c1ccc(N2CCNCC2)nc1 | inactive
CC1CCC2C(C)C(=O)OC3OC4(C)CCC1C32OO4 (centres undefined) | inactive
Cc1ccc(OC(=O)N(C)C[C@H]2OCc3ccccc3-c3c(n(C)c4ccccc34)C(=O)N([C@@H](C)CO)C[C@H]2C)cc1 | inactive
O=[N+]([O-])c1cc([As](=O)(O)O)ccc1O | inactive
CNCC(O)c1ccc(O)cc1.CNCC(O)c1ccc(O)cc1.O=C(O)C(O)C(O)C(=O)O (centres undefined) | inactive
C[C@H]1CN([C@@H](C)CO)C(=O)c2c(c3ccccc3n2C)-c2ccccc2CO[C@H]1CN(C)C(=O)Oc1ccccc1 | inactive
